# Assay results published in the supplement of paper PMC11417369.
# ± gives the standard deviation of the averaged measurements. Some of the results follow.
# System: PfAP2-LT AP2 domain (GST-tagged)
# Test: gcPBM binding intensity (ln(normalized median fluorescence intensity)); higher = stronger DNA binding
# Outline: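 Binding of GST-tagged P. falciparum DNA-binding domains, expressed in E. coli and used at about 25 μg on average, was carried out for 1 h in 1× PBS containing 1% milk, 0.2 mg/ml BSA, 0.5% salmon testes DNA and 0.03% Triton X-100. The target was an Agilent 4 × 180k array of primer-extended double-stranded 36-bp intergenic genomic probes plus negative controls, read with Alexa488 anti-GST antibody at 488 nm. Binding intensity is the highest Masliner-normalised natural-log median intensity across replicate spots of either probe orientation.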
row,Sequence,gcPBM binding intensity (ln)
1,AAAAACCATTGGCACACACACATAATATATAATATA [CACACA_site4903],9.77 ± 0.41
2,AAGAAAGGTTAAACATGTACATAAATATTTTACATA [XGTACX_site5024],8.71 ± 0.52
3,ATACCTAAAAAATATACACACATATATATAAATATA [CACACA_site2580],9.05 ± 0.42
4,CATCAATGCTAATTATGTACTTACATAAATAACCCT [XGTACX_site968],8.8 ± 0.37
5,ATGTTAATTAATGAGGTGCATTGAATATTTCAATAA,8.56 ± 0.46
6,TGTATTATCTCTTATGAACACACATTTTTATTTTCA [CACACA_site9107],8.9 ± 0.45
7,AATTAAATGTTTCTAAGATATACGACCAATGTATTT [CACACA_negctrl_site1694],8.54 ± 0.42
8,AATTAATGGGTACATACACACATATATACATACATA [CACACA_site742],9.16 ± 0.44
9,TTTATATTTTTTTTTGCACACTTTAAAAAAATATAT [CACACA_site1146],8.71 ± 0.42
10,TATATATTACATAAAACACACAAAAAAAAAATTAAA [CACACA_site3882],8.79 ± 0.58
11,AAATAAATTGAAGATACATGCATATTTTTTTTTTAT [TGCATGCA_site686],8.57 ± 0.39
12,GAATATTTATGATGAACTATTAATTAATTTTACATA [GTGCAC_negctrl_site353],8.35 ± 0.47
13,ATGTAGAGTAATAGTTGTACAAGGTGTATATCTCAT [XGTACX_site6370],9.29 ± 0.57
14,TGGTGAAAAATATAAATATAAATAAATATATATATA [CACACA_negctrl_site1725],8.68 ± 0.45
15,AAAAAAAAAAACTTTGCATGTAATAATAAAAAAAAA [TGCATGCA_site81],8.4 ± 0.5
16,AGAAGAAAACAAAACACACACATATATCTTAATATA [CACACA_site2231],9.39 ± 0.41
17,ATGATCTGTTTGTTTGTGCACATATATATATATTAA,9.16 ± 0.47
18,AGAGTTAAACGATATATATAAATATATATATATATA [GTGCAC_negctrl_site316],9.38 ± 0.3
19,AAAAAAAAAAACGACAGTACAATTATAATTTATATT [XGTACX_site2365],8.73 ± 0.51
20,AGATCATAATATTATACACACATTAGATATAGGTAA [CACACA_site6809],9.02 ± 0.42
21,ATGTCTTAAAAATTAAAACACACGTTCACTTTCATA [CACACA_site3385],8.97 ± 0.4
22,AAAAGGAAGATATATACACACATACAAATATTTATA [CACACA_site7093],9.14 ± 0.35
23,ATAAATAAATAAAAGCGTACATATATATAAAATATA [XGTACX_site8107],8.76 ± 0.55

row,Sequence,gcPBM binding intensity (ln)
1,TATCACCCACCATGAAGTACATATTACCATTTGATG [XGTACX_site845],9.01 ± 0.4
2,TTATACTAAATGAACACACACACATATATATATATA [CACACA_site99],9.8 ± 0.18
3,AAATGTAATTTGTCTTTTATTTATATTTGACATGAT [TGCATGCA_negctrl_site520],8.62 ± 0.43
4,ATATTAATGATATATACACACATAAGTATTGTATAT [CACACA_site7844],8.98 ± 0.34
5,AAAAATTATAAAAAACAAATATTAAATAATTATTAA [GTGCAC_negctrl_site125],8.27 ± 0.59
6,TTGATGGGAAAAAACTTTTTTTTCTTTTTTTCTTTC [CACACA_negctrl_site328],8.32 ± 0.68
7,TTTTTTTTTTTTTTTTTTTTTTTGCTCAGTGTGGTA [CACACA_negctrl_site29],8.18 ± 0.64
8,GATATATGTATAATAACGCACACTACAAAAATAAAA [CACACA_site2100],9.09 ± 0.42
9,AATAAAGAAGAAGAAAGTACACATTTCACAAAGGGG [XGTACX_site1308],9.1 ± 0.33
10,ATAAAATATAGGTATGCACACACATATACTTCTGTG [CACACA_site8398],9.49 ± 0.45
11,AAGGTATGATTAATCACACACATAAATATAAATACA [CACACA_site5464],9.27 ± 0.56
12,AAGCTTCATTAATATACACACATATATGTGTATATT [CACACA_site7693],9.27 ± 0.23
13,GTTAGTTTTAGTTCATGTACATAATAGAAAATATAT [XGTACX_site7125],8.68 ± 0.33
14,TATATAATACGAATTTGTACATATTAAATAAATTAT [XGTACX_site93],8.59 ± 0.52
15,AATGAATGTACATACGCATGTACTTGACTAAATTAT [TGCATGCA_site436],9.05 ± 0.38
16,AAACTATACCAAAACACACATACAAAATATAAAAAA [CACACA_site2707],9.21 ± 0.47
17,ATTTTCAAATTATCAGATGAATCTTTTTAAGATCTT [XGTACX_negctrl_site598],8.34 ± 0.5
18,CTCATATATAACACATGTACACAGATTTTGCAAATG [XGTACX_site6879],8.95 ± 0.37
19,GGGAAAAAATGAGGTCGTACATTTTTCATCACAAAT [XGTACX_site8920],8.8 ± 0.46
20,TTTTTTTTTTTTTTTTTACACACTGCATACAAGAAA [CACACA_site3026],8.56 ± 0.45
21,GTCTGCATATGGATACGTACACATATATATTAATGT [XGTACX_site2260],9.25 ± 0.35
22,TAATATATTATAAACACATGCACATTAATAATAACT [TGCATGCA_site708],8.81 ± 0.47
23,TATTTTTTAAAAAAACGTACAAACATAATAAAAATA [XGTACX_site1857],8.6 ± 0.42

row,Sequence,gcPBM binding intensity (ln)
1,ACATAAATATATTTTTCACACATCATTAGTTATGAA [CACACA_site4724],8.69 ± 0.35
2,ATATGAAACATGAAGGTGCATAATGTGTATATTTAT,9.18 ± 0.45
3,ATAGACATTTTACTTTGTACATATAAACATATATAT [XGTACX_site2733],8.89 ± 0.48
4,TATATATATATATATGTGCACATTTTATTAAAATGT,9.63 ± 0.24
5,ATAAATAAAACAACAGTGCAATAAAATTAGTTGAGG,9.07 ± 0.54
6,TGGTAATACCCATACACACACACATACCCATATATA [CACACA_site5509],9.76 ± 0.33
7,TTTTTTATGAGGTGGTGTACTTTTTTTTTTTTCTTT [XGTACX_site8550],9.04 ± 0.42
8,CAAGAAACAGTGATACGTACACATATATATATATAT [XGTACX_site3229],9.99 ± 0.46
9,ATTAAAGAGAGACATCAACACACATACGTATGTATA [CACACA_site8393],8.97 ± 0.4
10,TTCAAATAAATAGTAGTGCATATTTATTAATGTAAA,8.58 ± 0.51
11,ATATATATATATACATGTACATATATACATTATATT [XGTACX_site936],9.45 ± 0.11
12,TTTTTTTTTTGTAATACACACCACTATATGTTATTT [CACACA_site5087],9.04 ± 0.54
13,AAACATTTAAATGGAAACACAGAAAAATGAAAAATG [CACACA_negctrl_site457],8.93 ± 0.53
14,TAAAAAATAAAATACACACACATATTTATATTTATA [CACACA_site6737],9.22 ± 0.35
15,AAAAAAAAAAAAAACATACACACAAGAACAAAATAT [CACACA_site3003],9.22 ± 0.38
16,CAACAACATTTTTCATGTACATATATTTTATAATAT [XGTACX_site519],8.71 ± 0.44
17,ATGTTATATTTTTTTATACACACTGGAATATATAAA [CACACA_site215],8.64 ± 0.34
18,TATATATATATATATTGTACTTTATTTTATATATTC [XGTACX_site5697],9.22 ± 0.32
19,ATTTATAATGAGTATACACACATATATAGATTTGCT [CACACA_site4517],9.02 ± 0.38
20,ATTATTATTGTCAAATGTACAAGCTAATAATTTTTA [XGTACX_site7167],8.39 ± 0.4
21,AAAAAAAAAAAAAAAACACACATATATGTATATATA [CACACA_site3276],8.92 ± 0.35
22,CAATTACGCAGGAATGCACACAATAATAAAAAAAAT [CACACA_site3513],9.18 ± 0.59
23,AAAAAAAAAAAAAACACACACACACCCAAATACATA [CACACA_site708],9.99 ± 0.24

row,Sequence,gcPBM binding intensity (ln)
1,TTTTTTCTTTTCAAGGTGCTTTATAAGAAAAAGGGA [GTGCAC_site9858],7.93 ± 0.33
2,TATTTTATCATTTGCACACGCACACCCACATAAAAA [CACACA_site354],9.4 ± 0.16
3,TATATTAAAACAAGCACACAATCGCATAATATCCTT [CACACA_site3210],9.02 ± 0.36
4,AGTATTATATTTTCTTGTACACATGTAAAATACCTC [XGTACX_site1359],8.91 ± 0.45
5,TATTATTCAAATAAAAGAAAAATATATATATTATAT [GTGCAC_negctrl_site273],8.38 ± 0.39
6,ATATGTTACTTTACATAAAGAAGAAGAAGAAGAAAA [CACACA_negctrl_site985],8.68 ± 0.4
7,TTTCAAAAAGGAAGAAAAAAAAAAAAAAAAAATATA [XGTACX_negctrl_site514],8.23 ± 0.53
8,TCCCCCTTTTTTTGATTTTTATCTTAATTCTAAAAG [GTGCAC_negctrl_site541],8.65 ± 0.31
9,ATATATATATATATATGTACATATTTTTTATTTTAT [XGTACX_site5761],9.655 ± 0.078
10,TTTAACGTTGAATATACACACATATATATATATATA [CACACA_site3698],9.55 ± 0.042
11,ATATATTTTTGTAGTGTGCACGTTTATATGGTGAAA,8.93 ± 0.34
12,TATAAACATATCATATGTACATATATTTTTATAAAA [XGTACX_site8882],8.54 ± 0.47
13,AAGAAAAAATAAAAAATAAAAATAAAAAATAAAAAA [TGCATGCA_negctrl_site274],8.56 ± 0.59
14,TAAGGATGAATCCTTTGTACATATATATATATATAT [XGTACX_site1242],9.27 ± 0.042
15,TTTTTTTAAATATACACACACATTTATACATATATA [CACACA_site3400],9.1 ± 0.39
16,TGAAAAGAAAACACATGTACAAATATATAAATATAA [XGTACX_site6098],9.01 ± 0.48
17,GTTATACATTTTGATTGTACATAAACCATTTGAGCA [XGTACX_site7283],8.72 ± 0.41
18,TTTATATATATTCTCACACACTTTTTATTTTAACAA [CACACA_site4534],8.84 ± 0.53
19,ATAAATTTCCTCGTTTTTTTTTTTTTTTTTTTTTTT [CACACA_negctrl_site1173],8.76 ± 0.16
20,AAAAATATTTATAACACACACATAATATTTATATAT [CACACA_site7238],9.21 ± 0.38
